Data reported in PubChem BioAssay AID1508623 (National Center for Advancing Translational Sciences (NCATS), 2021).
The campaign covered roughly 48,000 compounds. About 450 (0.94%) were called active. Roughly 19% stayed inconclusive and do not appear here. The call rests on the fitted dose curve; in most records, active means well fitted inhibition curve with a large enough effect; inconclusive means small, poorly fitted or top-dose-only effect; inactive means no such curve, though single readings can be large or run the other way. This is one part of the list.

Assay: Primary qHTS for Identification of Small Molecule Inhibitors of Huntingtin Promoter Activity; further: nearly all actives have a fitted effect of over 50% in size
Settings: HEK293 HTT promoter firefly luciferase reporter (activity 0% = vehicle and -100% = no light), 24 h; series mostly up to 57.5 µM; activity change, negative = inhibition: at the top concentration
Method in brief: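 HEK293 luciferase promoter-reporter cells (2,500/well) plated 24 h, then compounds added at up to 57.5 uM final for 24 h at 37 °C. Firefly luminescence by Dual-Glo, normalized to vehicle (0%) and zero RLU (-100%).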

Activity change, negative = inhibition, inactive:
CCc1ccc(-c2[nH]nc3nc(-c4ccc(OC)cc4)cc(C(=O)NCCCOC)c23)cc1 12.4%, COC(=O)c1ccccc1NC(=O)c1ccc(COc2cc(C)cc(C)c2)o1 -12.6%, CCOc1ccc(NC(=O)CCn2c(=O)c3cccn3c3cccnc32)cc1 -0.905%, Cc1nn(-c2ccc(F)cc2)c(-n2cccc2)c1C(=O)N1CCN(c2ccccc2)CC1 -31.5%, Cc1cc2nn(-c3ccccc3)nc2cc1NC(=O)COc1ccc(Cl)cc1 70.7%, CCCN(CCC)C(=O)Cn1c(=O)n(-c2ccc(C)c(C)c2)c(=O)c2c3c(sc21)CCCCC3 -9.24%, Cc1ncc(CO)c2c1Oc1nc(-c3ccc(F)cc3)nc(SCC(=O)N3CCCCC3)c1C2 -18.9%, Cc1ccc(NC(=O)CSc2nnc(-c3cc4occc4n3C)n2-c2ccccc2C)c(Cl)c1 -26%, Cc1ccc(C)c(Cn2c3ccccc3c3cnn(CC(=O)NC4CCC(C)CC4)c(=O)c32)c1 (stereo unspecified) 0%, O=C(NCCc1ccccc1)C1CCN(c2ncnc3c2nc2n3CCCCC2)CC1 11%, COc1ccc(NC(=O)CSC2=Nc3ccccc3C3=NC(CCC(=O)NCc4cccs4)C(=O)N23)cc1 (stereo unspecified) -28.2%, CCCCOC(=O)/C(C#N)=C/c1ccc(-c2cccc(C(F)(F)F)c2)o1 -20.8% [at 11.5 µM], CC1=C(C(=O)NCc2cccc(Br)c2)C2(CCCCC2)OC1=O -24.1%, CCOc1ccc(-c2nonc2NC(=O)c2ccco2)cc1 -19.7%, CCOc1ccc(NC(=O)CSc2nc3c(oc4ccccc43)c(=O)n2-c2cc(C)cc(C)c2)cc1 -4.33%, COc1cc(/C=C/c2nc(C#N)c(N3CCCCC3)o2)cc(OC)c1OC 2.41%, Cc1ccc(C(=O)Nc2c(-c3ccccc3)nc3ccccn23)cc1 -5.97%, Cc1ccc(C2c3[nH]c4ccccc4c3CCN2C(=O)c2ccccc2Br)cc1 (stereo unspecified) -38.5%, CCC(C(=O)OCc1cc(=O)n2nc(C)sc2n1)c1ccccc1 (stereo unspecified) -25.3%, Cc1cccc(-c2noc(CN(C3CCCCC3)S(=O)(=O)c3ccc(F)cc3)n2)c1 -15.3%, COc1ccc2c(c1)-c1nc(NC(=O)c3ccc(OC)c(Br)c3)sc1CC2 -26.6%, COc1ccc(OC)c(NC(=O)c2c(NCc3sccc3C)sc3c2CCCCC3)c1 -7.7%, COc1ccc(CNC(=O)CN(c2ccc(C(C)C)cc2)S(=O)(=O)c2c(C)nn(C)c2C)cc1 -21%, COc1ccc(NC(=O)CSc2nc3ccccc3nc2N2CCC(C)CC2)cc1 -17.5%, Cc1ccccc1NC(=O)Nc1nnc(N2CCCCCC2)s1 10.6%, COc1ccccc1NC(=O)CCn1nc(-c2ccccc2OC)c2c(C)cc(C)nc21 -26.6%
